# Measured values: paper PMC4336329 (PLoS ONE, 2015)
# Screen size: about 310,000 compounds; about 2,200 (0.71%) showed an effect of 50% or more. Effects have a minus sign here. The list shows a part of the results.
# Target: human ether-à-go-go-related gene (hERG) potassium channel (human, UniProt Q12809)
# Assay: primary screen, population patch clamp on CHO cells stably expressing hERG
# Chain of human ether-à-go-go-related gene (hERG) potassium channel (Q12809 whole entry, looked up): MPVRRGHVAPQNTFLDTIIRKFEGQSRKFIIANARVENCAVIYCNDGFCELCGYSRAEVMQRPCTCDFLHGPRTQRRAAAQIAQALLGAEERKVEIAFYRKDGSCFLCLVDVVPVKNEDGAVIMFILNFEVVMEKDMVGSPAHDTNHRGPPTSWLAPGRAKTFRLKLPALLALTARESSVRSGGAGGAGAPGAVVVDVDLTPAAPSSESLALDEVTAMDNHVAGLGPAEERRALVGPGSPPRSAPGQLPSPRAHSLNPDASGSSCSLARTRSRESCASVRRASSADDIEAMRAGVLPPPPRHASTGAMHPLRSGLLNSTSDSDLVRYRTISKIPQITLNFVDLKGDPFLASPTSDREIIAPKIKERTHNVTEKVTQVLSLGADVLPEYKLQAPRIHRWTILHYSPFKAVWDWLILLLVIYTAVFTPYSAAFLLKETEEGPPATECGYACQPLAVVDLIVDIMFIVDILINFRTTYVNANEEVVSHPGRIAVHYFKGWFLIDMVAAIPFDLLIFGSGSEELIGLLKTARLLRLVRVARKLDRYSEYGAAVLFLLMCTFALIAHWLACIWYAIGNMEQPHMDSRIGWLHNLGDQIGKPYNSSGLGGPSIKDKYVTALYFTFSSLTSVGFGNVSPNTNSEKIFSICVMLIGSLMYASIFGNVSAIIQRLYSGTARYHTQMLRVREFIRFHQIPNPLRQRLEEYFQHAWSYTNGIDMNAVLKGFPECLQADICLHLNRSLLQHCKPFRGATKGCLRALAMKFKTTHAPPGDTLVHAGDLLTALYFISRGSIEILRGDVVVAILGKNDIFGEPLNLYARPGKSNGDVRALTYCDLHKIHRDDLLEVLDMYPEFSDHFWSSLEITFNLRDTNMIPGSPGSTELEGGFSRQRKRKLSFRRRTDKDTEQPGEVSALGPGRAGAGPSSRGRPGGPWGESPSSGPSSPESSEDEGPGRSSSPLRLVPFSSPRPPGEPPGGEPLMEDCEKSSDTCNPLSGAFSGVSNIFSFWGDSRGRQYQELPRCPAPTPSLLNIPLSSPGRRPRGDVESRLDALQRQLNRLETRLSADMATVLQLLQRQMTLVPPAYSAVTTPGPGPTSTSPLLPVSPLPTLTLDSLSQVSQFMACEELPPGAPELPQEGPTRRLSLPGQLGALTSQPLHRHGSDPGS
row,Compound,"hERG current change (%, negative = inhibition) at 1uM [%]"
1,CC1C(=O)N2CCCc3cc(S(=O)(=O)N4CCN(c5cccc(Cl)c5)CC4)cc1c32 (centres unmarked),0.539
2,COc1ccc(-c2csc(NC(=O)c3ccc(OCC(=O)N4CCOCC4)c(OC)c3)n2)cc1OC,4.61
3,CC(=O)NS(=O)(=O)c1ccc(NC(=O)c2ccc3c(c2)C(=O)N(CCC(C)C)C3=O)cc1,13.2
4,COc1ccc2cc(C(=O)NCC3CCCO3)[nH]c2c1 (centres unmarked),21.7
5,Cc1cc(=O)oc2cc(OCC(=O)N3C[C@H]4C[C@@H](C3)c3cccc(=O)n3C4)ccc12,9.1
6,O=C(CN(c1ccc(F)cc1)S(=O)(=O)c1ccc2c(c1)OCCO2)NCC1CCCO1 (centres unmarked),3.24
7,COc1ccc(C2=NS(=O)(=O)N(C)C(C(=O)Nc3ccc(F)cc3F)=C2)cc1,15
8,Cc1ccccc1NC(=O)CN1C(=O)N/C(=C\c2cccn2-c2cccc(C(=O)O)c2)C1=O,17.8
9,Nc1ncc(-n2cncn2)c(-c2ccccc2)n1,10.2
10,CC(C)Oc1ccc(CSc2ncn[nH]2)cc1,17.4
11,Cc1ccc(/C=N/NC(=O)c2nnn(-c3nonc3N)c2CSc2ccc(Cl)cc2)cc1,9.71
12,COc1ccccc1C(=O)NC(=S)Nc1ccc2[nH]c(=O)[nH]c2c1,18.5
13,COc1ccc(C(C(=O)NC2CCCC2)N(Cc2cccnc2)C(=O)Cc2cccs2)cc1OC (centres unmarked),10.1
14,Cc1cc2nc(C3CCN(Cc4nnnn4Cc4cccs4)CC3)[nH]c2cc1C,-72.4
15,CC1CN(C(=O)CSc2nnc(CNC(=O)c3ccc(S(=O)(=O)N(C)C)cc3)o2)CC(C)O1 (centres unmarked),13.5
16,COCC(=O)Nc1ccc(S(=O)(=O)N2CCCC2)cc1,12.4
17,N#Cc1cn(CCOC(=O)c2cccc(C(F)(F)F)c2)c(=O)[nH]c1=O,5.24
18,CCn1c(=O)c(CCC(=O)NCCN2CCOCC2)c(C)c2c(C)nn(-c3cccc(C)c3)c21,6.45
19,Cc1ccc2nc(SCC(=O)Nc3cc(C(F)(F)F)ccc3N3CCOCC3)[nH]c2c1,4.18
20,CCCCC(=O)Nc1ccc2c(c1)oc1ccccc12,9.12
21,Cc1nc2ccccc2c(=O)n1/N=C/C=C/c1ccccc1,11.6
22,N#CCO/N=C/C(=O)Nc1ccc(F)cc1F,-16.7
23,COc1cc(C2C3=C(Nc4ncnn42)c2ccccc2CC3)cc(OC)c1OC (centres unmarked),-7.49

row,Compound,"hERG current change (%, negative = inhibition) at 1uM [%]"
1,O=C(CSc1nnnn1Cc1ccccc1)Nc1ccc2c(c1)OCCO2,1.17
2,CCC(C)Cn1c(C(C)O)nc2ccccc21 (centres unmarked),1.94
3,CCC(OC(=O)CNS(=O)(=O)c1ccccc1)C(=O)c1ccccc1 (centres unmarked),11.5
4,CCCC(=O)c1ccc(N2CCOCC2)c(F)c1,12.9
5,CCOC(=O)N1CCN(C(=O)C2CCN(Cc3nc(-c4ccccc4C)oc3C)CC2)CC1,-33.8
6,S=C(NCCN1CCOCC1)Nc1ccc(Cl)cc1Cl,3.99
7,CN(CC(=O)O)Cc1nc2ccccc2[nH]1.Cl,7.9
8,Cl.O=C1Cc2ccccc2Sc2cc(OCCCN3CCCCC3)ccc21,-29.1
9,COc1ccc(-n2c(=O)[nH]cc(C(=O)Nc3ccc4c(c3)OCO4)c2=O)cc1OC,6.41
10,COC(=O)c1ccc(NC(=O)CS(=O)(=O)Cc2ccccc2)cc1,11.7
11,COc1ccc(C2C(C(=O)c3ccco3)=C(O)C(=O)N2CCOCCO)cc1OC (centres unmarked),7.08
12,CC(=O)C(=Nc1ccccc1Cl)NNc1ccc(Cl)cc1,15.8
13,O=C(Cc1ccc(Cl)cc1)N/N=C/c1cccs1,7.89
14,COc1ccc(OC)c(/C=N/NC(=O)C(O)c2ccccc2)c1 (centres unmarked),15.1
15,O=C(N/N=C/c1ccccc1[N+](=O)[O-])c1ccc2nc[nH]c2c1,13.5
16,CC(C)(C)NC(=O)C(=O)N/N=C/c1ccc(F)cc1,7.86
17,O=C(Nc1cccc(Br)c1)/C(=C\c1cccnc1)NC(=O)c1ccco1,-3.24
18,COc1ccc(-c2c(-c3ccsc3)oc3ccc(N4CCOCC4)cc23)cc1,4.03
19,N#Cc1nc(-c2ccc(OCc3ccc(Cl)cc3)cc2)oc1NCCCn1ccnc1,4.38
20,Cc1ccc(-n2c(Cc3cccc4ccccc34)n[nH]c2=S)c(C)c1,13.3
21,Cc1noc(C)c1C(=O)Nc1nc(-c2ccccc2Cl)cs1,6.32
22,c1cc2c(cc1-c1cnc3n1CCC3)OCCO2,-8.31
23,c1ccc(OCCCCN2CCCCC2)cc1,11.6

row,Compound,"hERG current change (%, negative = inhibition) at 1uM [%]"
1,CCOc1c(Br)cc(C(=O)NCCCn2ccnc2)cc1OC,11.1
2,CC(=O)Nc1ccc(C(=O)NCCCSc2ccccc2)cc1,12.9
3,CC(=O)NCCNc1nc2c(-c3ccccc3)nnn2c2ccccc12,18.7
4,COC(=O)c1ccc(S(=O)(=O)NCc2ccc(OC)cc2)n1C,7.95
5,O=C(CCn1cccc1)N1CCc2ccccc21,9.61
6,CCN1CCN(CC(=O)c2cc(Cl)ccc2Cl)CC1,22.8
7,Cc1cc(C)c(-c2cc(NC(=O)COC(=O)c3ccc(CO)cc3)n(-c3ccccc3)n2)cc1C,13.5
8,Cl.c1ccc(CCN=C2CCCc3c2[nH]c2ccccc32)cc1,-2.01
9,COc1ccc(CC(=O)Nc2cccc(/C(C)=N/NC(=O)C3(C)CC3(Br)Br)c2)cc1 (centres unmarked),6.46
10,O=c1c2ccccc2c2c(O)nc(-c3ccccc3)n2n1Cc1ccccc1,14.1
11,COc1ccc(CN2C(=NC(=O)C3CC3)SC3CS(=O)(=O)CC32)cc1 (centres unmarked),9.93
12,CN1CCN(CCOc2ccc(Cc3ccccc3)cc2)CC1.Cl,8.96
13,Cc1ccccc1OCC1CNC(=O)O1 (centres unmarked),18.3
14,CCC/C=N/Nc1nc2ccccc2s1,5.89
15,CCOc1ccc(NC(=O)C(C)O)c(NS(=O)(=O)c2ccc(CCNC(C)=O)cc2)c1 (centres unmarked),13.6
16,Cc1c(NC(=O)CSc2nnc(N)s2)c(=O)n(-c2ccccc2)n1C,2.02
17,O=C(COC(=O)C1=COCCO1)NCc1ccc(Cl)cc1,6.69
18,CC1CCCN(C(=O)NC(=O)c2ccc(Cl)cc2)C1 (centres unmarked),13.3
19,Cc1ccc(C(C(=O)NC(C)(C)C)N(Cc2ccco2)C(=O)CCC(=O)Nc2ccccn2)cc1 (centres unmarked),8.68
20,O=C(CC1CCCC1)Nc1cc(S(=O)(=O)N2CCOCC2)ccc1O,5.82
21,COc1ccc(NC(=O)Cn2cc(C(C)=O)c3ccccc32)cc1,5.97
22,Cl.Clc1ccc(Sc2ccccn2)cc1,18.5
23,COc1cc(OC)cc(C(=O)N2CCC(N3CCN(c4ccccc4OC)CC3)CC2)c1.O=C(O)C(F)(F)F,-5.33

row,Compound,"hERG current change (%, negative = inhibition) at 1uM [%]"
1,COc1ccccc1OCc1nc(C#N)c(NCc2ccco2)o1,3.38
2,Cc1ccccc1OCC(=O)Nc1ccc2c(c1)Cc1ccccc1-2,0.369
3,COc1cc2c(cc1OC)C(C)N(C(=O)CCc1c[nH]c3ccccc13)CC2 (centres unmarked),13.5
4,CS(=O)(=O)c1ccc(-c2nnc(NC(=O)c3ccco3)o2)cc1,20.5
5,CNC(=O)NC(=O)C(c1ccccc1)N(C)CC1COc2ccccc2O1 (centres unmarked),15.4
6,Cl.O=C(Nc1cccc(F)c1)[C@@H]1CCCN1,15.7
7,C=CCn1c(=NC(=O)c2ccc(S(=O)(=O)N3CCCC3)cc2)sc2cc(NC(C)=O)ccc21,-6.32
8,COc1cc(CNCCNC(=O)c2nonc2N)ccc1OCc1ccc(Cl)cc1.Cl,-19
9,CCc1nnc(NC(=O)CSc2nc3ccccc3s2)s1,3.39
10,COc1ccccc1C(=O)Nc1c(C)cc(Br)cc1C,6.43
11,COc1ccc(Cc2nnc(-c3cccc(C)c3)o2)cc1OC,8.45
12,COCCNC(=O)C(c1ccncc1)N(C(=O)Cn1nnc2ccccc21)c1ccc(OC)cc1 (centres unmarked),10.3
13,O=c1cc(CN2CCN(c3cccc(Cl)c3)CC2)c2cc3c(cc2o1)CCCC3,12.4
14,COc1cc(NC(=O)CSc2nc(=O)n(CCN3CCOCC3)c3c2CCC3)cc(OC)c1,-2.97
15,COc1ccc(NC(=S)N2CCC(C(=O)c3ccc(OC)cc3)CC2)cc1,5.51
16,CC(=O)c1ccc(N2CCN(C(=O)C3CCN(S(=O)(=O)Cc4ccccc4)CC3)CC2)cc1,13.6
17,O=C(N/N=C\c1ccc(S(=O)(=O)[O-])o1)c1ccc2c(c1)OCO2.[Na+],18.7
18,CC1CCC2(CC1)SCC(=O)N2c1ccccc1 (centres unmarked),7.42
19,O=c1c([N+](=O)[O-])c(N2CCCCCC2)c2ccccc2n1-c1ccccc1,16
20,N/C(=N\OC(=O)CCn1cccc(C(F)(F)F)c1=O)c1ccc(Cl)cc1,5.09
